Some of the results follow. Many values rest on one well or one pass, so single values are uncertain.

Consider 16 compounds from the supplement of paper PMC4604168 (melanoma cell lines).
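Further: cells treated in 1,536-well plates, then fixed and DAPI-stained, with nuclei counted from automated high-throughput microscope images.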

The test system of the experiment is WM3526. Put plainly: cell count relative to DMSO control; melanoma cells; higher = more viable cells. As to conditions: library dose: standard library concentration; 72 h.
Turning to `COc1cc([C@@H]2c3cc4c(cc3[C@@H](O[C@@H]3O[C@@H]5CO[C@@H](C)O[C@H]5[C@H](O)[C@H]3O)[C@H]3COC(=O)[C@H]23)OCO4)cc(OC)c1O` [etoposide] + C[C@@H]1CCN(C(=O)CC#N)C[C@@H]1N(C)c1ncnc2[nH]ccc12 [CP690550] (first compound 0.1 µM, partner dose 5 µM), the cell count came to 129%.

For the compound `CCN(CC)CCNC(=O)c1c(C)[nH]c(/C=C2\C(=O)Nc3ccc(F)cc32)c1C` [sunitinib] + COc1cc(Nc2ncc(F)c(Nc3ccc4c(n3)NC(=O)C(C)(C)O4)n2)cc(OC)c1OC [Tamatinib] (first compound 2 µM, partner dose 2 µM), the cell count was determined as 50.7%. Take `COc1cc([C@@H]2c3cc4c(cc3[C@@H](O[C@@H]3O[C@@H]5CO[C@@H](C)O[C@H]5[C@H](O)[C@H]3O)[C@H]3COC(=O)[C@H]23)OCO4)cc(OC)c1O` [etoposide] + OCCn1cc(-c2cnc3nnn(Cc4ccc5ncccc5c4)c3n2)cn1 [PF04217903] (first compound 0.1 µM, partner dose 5 µM): the cell count is 99.6%. The result for `C[C@]1(O)C[C@@H](c2nc(-c3ccc4ccc(-c5ccccc5)nc4c3)c3c(N)nccn32)C1` + CN(C)S(=O)(=O)c1ccc2c(c1)/C(=C/c1cc3c([nH]1)CCCC3)C(=O)N2 [SU6656] (first compound 2 µM, partner dose 2 µM) reads 53.3%. The result for `C[C@]1(O)C[C@@H](c2nc(-c3ccc4ccc(-c5ccccc5)nc4c3)c3c(N)nccn32)C1` + COc1cc2c(Oc3ccc4[nH]c(C)cc4c3F)ncnc2cc1OCCCN1CCCC1 [cediranib] (first compound 2 µM, partner dose 2 µM) reads 66.5%. The same measure for `CCN(CC)CCNC(=O)c1c(C)[nH]c(/C=C2\C(=O)Nc3ccc(F)cc32)c1C` [sunitinib] + CO[C@@H]1[C@H](N(C)C(=O)c2ccccc2)C[C@H]2O[C@]1(C)n1c3ccccc3c3c4c(c5c6ccccc6n2c5c31)C(=O)NC4 [Midostaurin] (first compound 2 µM, partner dose 0.4 µM): 52.4%; for `COc1cc([C@@H]2c3cc4c(cc3[C@@H](O[C@@H]3O[C@@H]5CO[C@@H](C)O[C@H]5[C@H](O)[C@H]3O)[C@H]3COC(=O)[C@H]23)OCO4)cc(OC)c1O` [etoposide] + CC(C)(C)c1cnc(CSc2cnc(NC(=O)C3CCNCC3)s2)o1 [SNS-032] (first compound 0.1 µM, partner dose 0.05 µM): 124%. `C[C@]1(O)C[C@@H](c2nc(-c3ccc4ccc(-c5ccccc5)nc4c3)c3c(N)nccn32)C1` + C=CCn1c(=O)c2cnc(Nc3ccc(N4CCN(C)CC4)cc3)nc2n1-c1cccc(C(C)(C)O)n1 [MK1775] (first compound 2 µM, partner dose 0.1 µM) yielded a cell count of 59.2%. The result for `COc1cc([C@@H]2c3cc4c(cc3[C@@H](O[C@@H]3O[C@@H]5CO[C@@H](C)O[C@H]5[C@H](O)[C@H]3O)[C@H]3COC(=O)[C@H]23)OCO4)cc(OC)c1O` [etoposide] + O=C(CCCCCCC(=O)Nc1ccccc1)NO [vorinostat] (first compound 0.1 µM, partner dose 0.4 µM) reads 78.9%; that for `COc1cc([C@@H]2c3cc4c(cc3[C@@H](O[C@@H]3O[C@@H]5CO[C@@H](C)O[C@H]5[C@H](O)[C@H]3O)[C@H]3COC(=O)[C@H]23)OCO4)cc(OC)c1O` [etoposide] + O=C(O)c1ccc(-c2c[nH]c3ncc(-c4ccccc4)cc23)cc1C1CCCC1 [GSK650394] (first compound 0.1 µM, partner dose 0.8 µM), 104%; that for `Cn1cnc2c(F)c(Nc3ccc(Br)cc3Cl)c(C(=O)NOCCO)cc21` [selumetinib] + Cc1ccc(NC(=O)c2cccc(N(C)C)c2)cc1NC(=O)c1ccc(O)cc1 [ZM336372] (first compound 0.075 µM, partner dose 10 µM), 58.6%.

`C[C@]1(O)C[C@@H](c2nc(-c3ccc4ccc(-c5ccccc5)nc4c3)c3c(N)nccn32)C1` + OCCn1cc(-c2cnc3nnn(Cc4ccc5ncccc5c4)c3n2)cn1 [PF04217903] (first compound 2 µM, partner dose 5 µM) returned a cell count of 77.1%.

`CCN(CC)CCNC(=O)c1c(C)[nH]c(/C=C2\C(=O)Nc3ccc(F)cc32)c1C` [sunitinib] + CN(C)S(=O)(=O)c1ccc2c(c1)/C(=C/c1cc3c([nH]1)CCCC3)C(=O)N2 [SU6656] (first compound 2 µM, partner dose 2 µM) returned a cell count of 56.4%. The result for `CCN(CC)CCNC(=O)c1c(C)[nH]c(/C=C2\C(=O)Nc3ccc(F)cc32)c1C` [sunitinib] + CC(C)(C)c1cnc(CSc2cnc(NC(=O)C3CCNCC3)s2)o1 [SNS-032] (first compound 2 µM, partner dose 0.05 µM) reads 42.7%; that for `Cn1cnc2c(F)c(Nc3ccc(Br)cc3Cl)c(C(=O)NOCCO)cc21` [selumetinib] + O=C(Nc1cccc(Cl)c1)Nc1ncc(CCNc2ncnc3ccsc23)s1 [SNS314] (first compound 0.075 µM, partner dose 0.004 µM), 62.8%. The same measure for `COc1cc([C@@H]2c3cc4c(cc3[C@@H](O[C@@H]3O[C@@H]5CO[C@@H](C)O[C@H]5[C@H](O)[C@H]3O)[C@H]3COC(=O)[C@H]23)OCO4)cc(OC)c1O` [etoposide] + CC1(C)NC(=O)N(c2ccc([N+](=O)[O-])c(C(F)(F)F)c2)C1=O [nilutamide] (first compound 0.1 µM, partner dose 5 µM): 98.1%.
